Test results: patent US20240279335A1, “CD28 SHEDDING BLOCKING AGENTS” (BIOND BIOLOGICS LTD., priority 2021, published 2024)

How the values were obtained:
[1] = biological target: T1, human CD28-Fc chimera (R&D, Cat. No. 342-CD) (human, UniProt P10747 19-152); assay: direct CD28 EIA on plate-coated human CD28-Fc chimera, construct titrated (nM), OD read
T1 construct: Bought reagent; also called recombinant human CD28-Fc fusion protein; recombinant CD28 fused to an Fc backbone; Fc part of the bought chimera not given

[2] = biological target: T1, human CD28-Fc chimera (R&D, Cat. No. …); assay: SPR (Biacore), multi-cycle kinetics, binding to CD28-Fc
[3] = biological target: T2, human CD28 on the cell surface (membranal CD28) (human, UniProt P10747 19-220); assay: flow cytometry on human CD3 cells, 300 nM, anti-human IgG VHH Alexa Fluor 647
T2 construct: also called mCD28; CD28 on the surface of cells

[4] = biological target: T2, human CD28 on the cell surface …; assay: flow cytometry on human CD3 cells, 300 nM; reference 12A09-25GS-huFc (parental)
CD28-Fc = biological target: T3, CD28-Fc (Homo sapiens, UniProt P10747); assay: Biacore multi-cycle kinetics on immobilized CD28-Fc; assay type: binding; conditions: Table 5, VHH-25GS-human IgG4 Fc dimeric agents
T3 construct: Fc

EC50 (read off the curve) [1] [nM]	Kd [2] [nM]	koff [2] [s⁻¹]	kon [2] [M⁻¹ s⁻¹]	MFI [3] [MFI]	fold fluorescence against the parental construct [4] [fold]	Kd (CD28-Fc) [nM]	Molecule
~0.9	0.393	0.000102	260000	–	–	–	9B03-25GS-hG4 (Fc fusion, also called 9B03-25GS-huFc; 9B3-25GS-hIgG4) EVQLVESGGGLVQAGESLRLSCAASGSIASIRTMAWYRQAPGSQRELVAAISSGREVYYADSVKGRFTISRDNAKTTVYLQMNSLRPEDTAVYYCVVDMYWQDYWWWGQGTQVTVSSGGGGSGGGGSGGGGSGGGGSGGGGS[human IgG4 Fc with changes not shown]
–	0.449	9.79e-05	219000	–	–	–	9B03 (VHH1)-25GS-hG4 (Fc fusion, also called 9B03-VHH1-25GS-huFc (humanized); humanized 9B3 variant VHH1 chimera) EVQLVESGGGLVQPGESLRLSCAASGSIASIRTMAWYRQAPGSQRELVAAISSGREVYYADSVKGRFTISRDNAKTTVYLQMNSLRAEDTAVYYCVVDMYWQDYWWWGQGTQVTVSSGGGGSGGGGSGGGGSGGGGSGGGGS[human IgG4 Fc with changes not shown]
–	0.298	2.53e-05	84900	1590	3	–	12A09 (VHH16)-25GS-hG4 (Fc fusion, also called 12A09-VHH16-25GS-huFc (humanized); 12A09-VHH16-25G-huFc (humanized)) EVQLVESGGGLVQPGGSLRLSCAASGSTASIKTMAWYRQAPGKGLELVTAIASDNRKYYADSVKGRFTISRDNSKTTVYLQMNSLRAEDTAVYYCVVDVTKEDYWYWGQGTLVTVSSGGGGSGGGGSGGGGSGGGGSGGGGS[human IgG4 Fc with changes not shown]
–	0.17	1.29e-05	75900	1920	3	–	12A09 (VHH17)-25GS-hG4 (Fc fusion, also called 12A09-VHH17-25GS-huFc (humanized); 12A09-VHH17-25G-huFc) EVQLVESGGGLVQPGGSLRLSCKASGSTASIKTMAWYRQAPGKGLELVTAIASDNRKYYADSVKGRFTISRDNSKTTVYLQMNSLRAEDTAVYYCVVDVTKEDYWYWGQGTLVTVSSGGGGSGGGGSGGGGSGGGGSGGGGS[human IgG4 Fc with changes not shown]
–	0.361	4.22e-05	117000	612	–	–	12A09 (VHH18)-25GS-hG4 (Fc fusion, the same make-up is recited in CLM-00093; also called 12A09-VHH18-25GS-huFc (humanized); 12A9-VHH18-25GS-huFc) EVQLVESGGGLVQPGGSLRLSCAASGSIASIKTMAWYRQAPGKGRELVTAIASDNRKYYADSVKGRFTISRDNSKTTVYLQMNSLRAEDTAVYYCVVDVTKEDYWYWGQGTLVTVSSGGGGSGGGGSGGGGSGGGGSGGGGS[human IgG4 Fc with changes not shown]
–	0.396	3.01e-05	76100	1650	3	–	12A09 (VHH12)-25GS-hG4 (Fc fusion, also called 12A09-VHH12-25GS-huFc (humanized); 12A09-VHH12-25G-huFc) EVQLVESGGGLVQPGGSLRLSCKASGSIASIKTMAWYRQAPGKGLELVTAIASDNRKYYADSVKGRFTISRDNSKTTVYLQMNSLRAEDTAVYYCVVDVTKEDYWYWGQGTLVTVSSGGGGSGGGGSGGGGSGGGGSGGGGS[human IgG4 Fc with changes not shown]
–	0.435	5.38e-05	124000	564	–	–	12A09 (VHH4)-25GS-hG4 (Fc fusion, also called 12A09-VHH4-25GS-huFc (humanized); 12A9-VHH4-25GS-huFc) EVQLVESGGGLVQPGGSLRLSCAASGSIASIKTMAWYRQAPGKQRELVTAIASDNRKYYADSVKGRFTISRDNSKNTLYLQMNSLRAEDTAVYYCVVDVTKEDYWYWGQGTLVTVSSGGGGSGGGGSGGGGSGGGGSGGGGS[human IgG4 Fc with changes not shown]
–	–	–	–	–	–	0.161	12A09-25GS-hG4: VHH 12A9 fused via 25 amino acid GGGGSx5 linker to human IgG4 Fc (S228P, L235E), dimeric; SEQ ID NO: 93 (protein, chains of the parent or of the whole protein) EVQLVESGGGLVQAGESLRLSCAASGSIASIKTMAWYRQAPGSQRELVTAIASDNRKYYADSVKGRFTISRDNAKTTVYLQMNSLRPEDTAVYYCVVDVTKEDYWYWGQGTQVTVSSGGGGSGGGGSGGGGSGGGGSGGGGS[human IgG4 Fc with changes not shown]
